Data published in PubChem BioAssay AID1508642 (National Center for Advancing Translational Sciences (NCATS), 2021).
Screen size: about 43,000 compounds; about 200 (0.47%) were called active. Not shown: some 12% with an inconclusive outcome. The call rests on the fitted dose curve; in most records, active means well fitted cell-killing curve with a large enough effect; inconclusive means small, poorly fitted or top-dose-only effect, or effect the other way; inactive means flat fitted curve, though single readings scatter. The list shows a part of the results.

Assay: Cell viability qHTS assay in S16 Pmp22-F2sN cells; further: nearly all actives have a fitted effect of over 65% in size
Details: S16 Pmp22-F2sN Schwann cells viability, CellTiter-Glo, 24 h; series mostly up to 57.5 µM; activity change, negative = cytotoxicity: at the top concentration
How it was run: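 Used to flag compounds lowering reporter output through toxicity, this quantitative HTS measures ATP-based CellTiter-Glo luminescence in S16 Pmp22-F2sN Schwann cells after 24 h compound exposure at 37C.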
On the % scale 0 is the no-effect control and ±100 the full control effect.

Compound | activity change, negative = cytotoxicity
COc1ccc(NC(=O)CSc2nc3cc(OC)c(OC)cc3c3nc(-c4ccccc4)nn23)cc1Cl | inactive: 2.47%
Cc1cc(C)c(NC(=O)CCCN2C(=O)COc3ccc(C)cc32)c(C)c1 | inactive: -3.39%
COc1ccccc1N1CCN(S(=O)(=O)c2c(C)sc3ncn(CC(=O)Nc4ccc(C(F)(F)F)cc4)c(=O)c23)CC1 | inactive: 4.78%
CC(=O)c1ccc(NC(=O)C2CCCN(S(=O)(=O)c3ccc4c(c3)CCCN4C(C)=O)C2)cc1 (stereo not drawn) | inactive: -16.6%
O=C(Cn1ccc2cc(S(=O)(=O)N3CCCCC3)ccc21)NCCc1ccc(Cl)cc1 | inactive: -23.9%
COC(=O)c1sc(NC(=O)c2cc3nc(-c4ccc(Br)cc4)cc(C(F)(F)F)n3n2)c(C(=O)OC)c1C | inactive: -20.4%
CCc1ccc(NC(=O)c2cc3nc(-c4ccc(C)cc4)cc(C(F)(F)F)n3n2)cc1 | inactive: -0.829%
O=C(O)Cc1sc(Nc2ccccc2Cl)nc1-c1ccccc1 | inactive: 16.8%
CCOC(=O)c1c(NC(=O)Cc2coc3cc(C)ccc23)sc2c1CCCC2 | inactive: 10.4%
Cc1ccc(OCC(=O)Nc2ccccc2C(=O)OCc2cc(=O)n3ccsc3n2)cc1C | inactive: -2.66%
COc1ccc(CCNC(=O)CN(c2cc(C(F)(F)F)ccc2Cl)S(C)(=O)=O)cc1 | inactive: 20.7%
O=C(COc1ccc(F)cc1)Nc1ccccc1C(=O)OCc1cc(=O)n2nc(C3CC3)sc2n1 | inactive: 5.89%
Cc1nc2nc(SCc3ccc(F)cc3Cl)nn2c(C)c1Cc1ccccc1 | inactive: -5.82%
CCOc1ccc(-c2cn3c(n2)sc2cc(C(=O)NCCCc4ccccc4)ccc23)cc1 | inactive: 3.67%
CCC1CN(C(=O)N2CCC(C(=O)Nc3cc(C)ccc3C)CC2)c2ccccc2O1 (stereo not drawn) | inactive: 3.67%
COc1cc(C2c3c(oc4ccccc4c3=O)C(=O)N2c2nncs2)cc(OC)c1OC (stereo not drawn) | inactive: 2.42%
Cc1cccc(-c2cc(NC(=O)C(C)(C)C)n(-c3ccccc3)n2)c1 | inactive: -4.37%
Cc1nc2nc(-c3ccc(Cl)cc3Cl)nn2c(C)c1CCC(=O)Nc1ccc(F)cc1 | inactive: 8.91%
CCCCN(C)CCCNC(=O)CN1C(=O)COc2ccc(S(=O)(=O)N3CCOCC3)cc21 | inactive: 9.95%
O=C(CS(=O)(=O)c1cccc2nsnc12)NCc1ccc(Cl)cc1 | inactive: -1.8%
COc1ccc(-c2c(C)nn3c4c(cnc23)C(=O)CC(c2ccccc2)C4)cc1 (stereo not drawn) | inactive: 5.87%
CCc1ccc(CNC(=O)CCSCc2ccccc2F)cc1 | inactive: 11%
O=C(CSc1nc(-c2ccccc2)no1)N1CCN(c2ccccc2F)CC1 | inactive: 3.2%
COc1cccc(C2=CC(c3ccc(OC)c(OC)c3OC)n3ncnc3N2)c1 (stereo not drawn) | inactive: -5.04%

Compound | activity change, negative = cytotoxicity
CCN(C(=O)Cc1nc(-c2ccc(OC)cc2)no1)c1cccc(Cl)c1 | inactive: -5.39%
O=C(Cn1c(=O)nc(-c2ccccc2)c2ccccc21)Nc1ccc(Cl)c(C(F)(F)F)c1 | inactive: 2.04%
COc1ccccc1OCCn1c(-c2ccc(Cl)cc2)nc2ccccc2c1=O | inactive: -2.14%
COc1ccc(C(=O)c2cn(CC(=O)Nc3ccc4c(c3)OCCO4)c3ccc(OC)cc3c2=O)cc1 | inactive: -5.8%
Cc1ccc(C(C)C)c(OCC(=O)Nc2cccc(NC(=O)c3ccco3)c2)c1 | inactive: -1.97%
Cc1ccc(-c2ccc(=O)n(Cc3cc(C)ccc3C)n2)cc1 | inactive: -11.6%
CCC(CC)C(=O)NC1CC(=O)N(c2ccc3c(c2)OCCO3)C1 (stereo not drawn) | inactive: 12.2%
Cc1nc(-c2ccccc2)sc1-c1ccc(SCC(=O)NCc2ccc(F)cc2)nn1 | inactive: 6.61%
Cn1c(=O)c2c(SCC(=O)N3CCc4ccccc43)nc(-c3ccccc3Cl)nc2n(C)c1=O | inactive: 21.7%
CCN(c1cc(C)cc(C)c1)S(=O)(=O)c1nnc(NC(=O)c2cccs2)s1 | inactive: 1.37%
CCOc1ccc(-n2c(CCC(=O)O)ccc2-c2ccc(Br)cc2)cc1 | inactive: -0.951%
CCOc1ccc(-n2c(SCC(=O)N3CCCC3)nc3c([nH]c4ccccc43)c2=O)cc1 | inactive: 10.4%
COc1ccc(-c2cc(C(F)(F)F)c(C#N)c(SCC(=O)Nc3ccc(F)cc3)n2)cc1 | inactive: -16.1%
COc1ccc(-c2cn3nc(N4CCC(C(=O)NCc5ccccc5F)CC4)sc3n2)cc1 | inactive: 8.4%
Cc1ccc(NCc2cccn2-c2nnc(N3CCC(C(=O)NC(C)C)CC3)s2)cc1 | inactive: -21%
CCc1ccc(CNC(=O)c2ccc3c(c2)N=C(C)c2cc(C)ccc2S3)cc1 | inactive: -17.9%
CN(C)CCNC(=O)c1ccc(-n2c(-c3ccccc3)cc3c2CCCC3)cc1 | inactive: 26.4%
COc1ccc(CNc2ncnc3onc(C)c23)cc1 | inactive: -25.5%
COc1ccc(NC(=O)Cn2c(=O)oc3cc(S(=O)(=O)NC4CCCC4)ccc32)cc1OC | inactive: -0.715%
CCCNC(=O)c1ccc2c(c1)ncn2-c1ccc(C)cc1C | inactive: -14.4%
CCOC(=O)c1c(NC(=O)CS(=O)(=O)c2ccc(C)cc2)sc2c1CCCCC2 | inactive: 0.0492%
Cc1ccc(S(=O)(=O)C(CNC(=O)C(=O)NCc2ccc(Cl)cc2)c2cccs2)cc1 (stereo not drawn) | inactive: 13.1%
CC(=O)c1ccc(NC(=O)c2cn3c4c(ccc(Cl)c4c2=O)OC(C)C3)cc1 (stereo not drawn) | inactive: -0.29%
CCC(=O)N1c2ccc(S(=O)(=O)N3CCN(c4ccccc4)CC3)cc2CC1C (stereo not drawn) | inactive: 0.344%
